In PubChem BioAssay AID1963576 (National Center for Advancing Translational Sciences (NCATS), 2024):
Screen size: about 46,000 compounds; about 60 (0.1%) were called active. Not shown: some 3% with an inconclusive outcome. Calls follow the shape of the dose curve; as a rule, active = well fitted inhibition curve with a large enough effect; inconclusive = small, poorly fitted or top-dose-only effect; inactive = no such curve, though single readings can be large or run the other way. Some of the results follow.

assay: Primary qHTS assay for Inhibitors of ovarian cancer metastasis using an organotypic tumor microenvironment (TME) model.; also: nearly all actives have a fitted effect of over 65% in size;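 as to activity change, negative = inhibition: plate controls were DMSO wells for no effect and tomatine positive control wells for full effect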; settings: SKOV3ip1-GFP adhesion/invasion on 3D omental model, fluorescence; series mostly up to 45.8 µM; activity change, negative = inhibition: at the top concentration
Summary of the method: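 qHTS, 4-pt dose (0.36-46 umol/L); SKOV3ip1-GFP, 1,200 cells/well, no FBS; primary omental fibroblast/mesothelial co-culture 48 h pre-grown; 2 h RT + 16 h 37 C; PBS wash, 4% PFA; GFP count 488/509 nm.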

outcome, inactive:
CCOC(=O)c1cc(-c2ccc(C)cc2)n(CCC(=O)Nc2cc(Cl)ccc2C)c1C, COc1ccccc1NC(=O)Cn1c(=O)n(-c2cccc(Cl)c2)c(=O)c2sc3ccccc3c21, COc1cc2[nH]c(=O)n(Cc3ccc(C(=O)NCc4ccc(C)cc4)cc3)c(=O)c2cc1OC, O=C(Cn1c(=O)n(Cc2ccc(C(=O)NCc3ccc4c(c3)OCO4)cc2)c(=O)c2ccccc21)Nc1cccc(Cl)c1, CC(C)COc1ccc(C(=O)N2CCC(c3nc4ccccc4s3)CC2)cc1, O=C(CC1N=C2c3ccccc3N=C(SCC(=O)Nc3ccccc3F)N2C1=O)NCc1ccc2c(c1)OCO2 (stereo unspecified), CCOC(=O)c1c(NC(=O)C(C)Sc2cn(CCNC(=O)c3ccc(OC)cc3)c3ccccc23)sc2c1CCC2 (stereo unspecified), CCCOCc1cc(CN2CCN(c3ccccc3OC)CC2)c(O)c2ncccc12, COc1ccccc1NC(=O)C1=C(C)Nc2nc(SCC(=O)c3ccc(C)cc3)nn2C1c1ccc(F)cc1 (stereo unspecified), O=C(NCc1ccc(Cl)cc1)c1cnc(N2CCOCC2)c2ccccc12, Cc1ccc(CSCCNC(=O)CN(c2cccc(C)c2C)S(=O)(=O)c2ccccc2)cc1

Activity change, negative = inhibition, inactive:
Cc1cccc(CSc2nc(=O)c3c(n2C)NC(=O)CC3c2cccc(O)c2)c1 (stereo unspecified) -10.2%, Cc1ccc2c(c1)sc1nc(-c3cc4cc(Cl)ccc4oc3=O)cn12 2.2%, Cc1ccc(N2CC(NC(=O)Cc3ccc(F)cc3)CC2=O)cc1 (stereo unspecified) -2.85%, O=C1Cc2cc(S(=O)(=O)N3CCCCC3)cc3c2N1CCC3 21.6%, CC1=C(C(=O)Nc2cccc(C(F)(F)F)c2)C2(CCCCCC2)OC1=O -34.6%, Cc1cnc(NC(=O)Nc2cc(Br)c(C)cc2OC[C@@H]2CNCCO2)cn1 3.77%, CCOc1ccc2nc(NC(=O)c3nc(SCc4ccc(C)cc4)ncc3Cl)sc2c1 -11%, Nc1cc(C(F)(F)F)c(-c2cc(N3CCOCC3)nc(N3CCOCC3)n2)cn1 -11.4%, CCOC(=O)CC(NS(=O)(=O)c1cc(-c2cc(C)no2)ccc1C)c1ccc(C)cc1 (stereo unspecified) 9.02%, COc1ccc(N2CCN(c3nc4ccccc4n4c(C)nnc34)CC2)cc1 3.48%, CC(C)CCn1c(=O)c2sccc2n2c(CCCC(=O)Nc3ccc(C(C)C)cc3)nnc12 0.642%, Cc1ccc(CSc2nncn3c2cc2sccc23)cc1 -23%, CN(C(=O)CSc1nc2ccccc2[nH]1)c1ccc(F)cc1 -0.465%, Cc1cccc(C)c1NC(=O)CN(C)S(=O)(=O)c1ccc2[nH]c3c(c2c1)CCCC3 -12.1%, Cc1ccc2occ(CC(=O)Nc3c(C(=O)Nc4ccc(Cl)cc4)oc4ccccc34)c2c1 4.59%
